Experimental data as given in publication PMC9911399, “Two distinct binding modes provide the RNA-binding protein RbFox with extraordinary sequence specificity”.
Where a chain is given by its changes, count along the chain named. Some of the results follow.

T1: RBFOX1 RRM (Homo sapiens, UniProt Q9NWB1 109-208)
T1 sequence: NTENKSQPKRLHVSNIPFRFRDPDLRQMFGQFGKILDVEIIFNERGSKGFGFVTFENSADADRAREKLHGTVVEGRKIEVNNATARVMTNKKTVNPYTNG

B1: UCUGUGG (DNA:RNA)
RNA: GGGAGACCGGAAUUCAGAUUGUCCUCUGUGGUUAAAUCCCGUCGUAGCCACCA
DNA 1: CAATCTGAATTCCGGTCTCCC
DNA 2: TGGTGGCTACGACGGGATT
B2: UUUAUCA (DNA:RNA)
RNA: B1 RNA with C26U, G28A, G30C, G31A
DNA 1: CAATCTGAATTCCGGTCTCCC
DNA 2: TGGTGGCTACGACGGGATT
B3: CACCAAA (DNA:RNA)
RNA: GGGAGACCGGAAUUCAGAUUGUCCCACCAAAUUAAAUCCCGUCGUAGCCACCA
DNA 1: CAATCTGAATTCCGGTCTCCC
DNA 2: TGGTGGCTACGACGGGATT
B4: UAAAGCC (DNA:RNA)
RNA: B3 RNA with C25U, C27A, C28A, A29G, A30C, A31C
DNA 1: CAATCTGAATTCCGGTCTCCC
DNA 2: TGGTGGCTACGACGGGATT
B5: CACAUAG (DNA:RNA)
RNA: B3 RNA with C28A, A29U, A31G
DNA 1: CAATCTGAATTCCGGTCTCCC
DNA 2: TGGTGGCTACGACGGGATT
B6: UUCUCAU (DNA:RNA)
RNA: B3 RNA with C25U, A26U, C28U, A29C, A31U
DNA 1: CAATCTGAATTCCGGTCTCCC
DNA 2: TGGTGGCTACGACGGGATT
B7: GGAUGGC (DNA:RNA)
RNA: B1 RNA with U25G, C26G, U27A, G28U, U29G, G31C
DNA 1: CAATCTGAATTCCGGTCTCCC
DNA 2: TGGTGGCTACGACGGGATT
B8: UUAUGAC (DNA:RNA)
RNA: B3 RNA with C25U, A26U, C27A, C28U, A29G, A31C
DNA 1: CAATCTGAATTCCGGTCTCCC
DNA 2: TGGTGGCTACGACGGGATT
B9: GAGUUAG (DNA:RNA)
RNA: B3 RNA with C25G, C27G, C28U, A29U, A31G
DNA 1: CAATCTGAATTCCGGTCTCCC
DNA 2: TGGTGGCTACGACGGGATT
B10: CCAGGUU (DNA:RNA)
RNA: B1 RNA with U25C, U27A, U29G, G30U, G31U
DNA 1: CAATCTGAATTCCGGTCTCCC
DNA 2: TGGTGGCTACGACGGGATT
B11: CGCAGGA (DNA:RNA)
RNA: B3 RNA with A26G, C28A, A29G, A30G
DNA 1: CAATCTGAATTCCGGTCTCCC
DNA 2: TGGTGGCTACGACGGGATT
B12: UCCACUC (DNA:RNA)
RNA: B1 RNA with U27C, G28A, U29C, G30U, G31C
DNA 1: CAATCTGAATTCCGGTCTCCC
DNA 2: TGGTGGCTACGACGGGATT
B13: UGCACUU (DNA:RNA)
RNA: B3 RNA with C25U, A26G, C28A, A29C, A30U, A31U
DNA 1: CAATCTGAATTCCGGTCTCCC
DNA 2: TGGTGGCTACGACGGGATT
B14: UAAUCAG (DNA:RNA)
RNA: B3 RNA with C25U, C27A, C28U, A29C, A31G
DNA 1: CAATCTGAATTCCGGTCTCCC
DNA 2: TGGTGGCTACGACGGGATT
B15: AUGCUCG (DNA:RNA)
RNA: B1 RNA with U25A, C26U, U27G, G28C, G30C
DNA 1: CAATCTGAATTCCGGTCTCCC
DNA 2: TGGTGGCTACGACGGGATT
B16: UCGUGGC (DNA:RNA)
RNA: B1 RNA with U27G, G28U, U29G, G31C
DNA 1: CAATCTGAATTCCGGTCTCCC
DNA 2: TGGTGGCTACGACGGGATT
B17: CAGACUA (DNA:RNA)
RNA: B3 RNA with C27G, C28A, A29C, A30U
DNA 1: CAATCTGAATTCCGGTCTCCC
DNA 2: TGGTGGCTACGACGGGATT
B18: UGCUGAA (DNA:RNA)
RNA: B3 RNA with C25U, A26G, C28U, A29G
DNA 1: CAATCTGAATTCCGGTCTCCC
DNA 2: TGGTGGCTACGACGGGATT
B19: CGAUAUU (DNA:RNA)
RNA: B3 RNA with A26G, C27A, C28U, A30U, A31U
DNA 1: CAATCTGAATTCCGGTCTCCC
DNA 2: TGGTGGCTACGACGGGATT
B20: AACCGUA (DNA:RNA)
RNA: B3 RNA with C25A, A29G, A30U
DNA 1: CAATCTGAATTCCGGTCTCCC
DNA 2: TGGTGGCTACGACGGGATT
B21: AGCAACC (DNA:RNA)
RNA: B3 RNA with C25A, A26G, C28A, A30C, A31C
DNA 1: CAATCTGAATTCCGGTCTCCC
DNA 2: TGGTGGCTACGACGGGATT
B22: CGCGCGG (DNA:RNA)
RNA: B1 RNA with U25C, C26G, U27C, U29C
DNA 1: CAATCTGAATTCCGGTCTCCC
DNA 2: TGGTGGCTACGACGGGATT
B23: ACUUAUU (DNA:RNA)
RNA: B1 RNA with U25A, G28U, U29A, G30U, G31U
DNA 1: CAATCTGAATTCCGGTCTCCC
DNA 2: TGGTGGCTACGACGGGATT
B24: GAUGCGU (DNA:RNA)
RNA: B1 RNA with U25G, C26A, U29C, G31U
DNA 1: CAATCTGAATTCCGGTCTCCC
DNA 2: TGGTGGCTACGACGGGATT
B25: GGCCCGG (DNA:RNA)
RNA: B3 RNA with C25G, A26G, A29C, A30G, A31G
DNA 1: CAATCTGAATTCCGGTCTCCC
DNA 2: TGGTGGCTACGACGGGATT
B26: CUCUGAU (DNA:RNA)
RNA: B3 RNA with A26U, C28U, A29G, A31U
DNA 1: CAATCTGAATTCCGGTCTCCC
DNA 2: TGGTGGCTACGACGGGATT
B27: CUGUUAG (DNA:RNA)
RNA: B3 RNA with A26U, C27G, C28U, A29U, A31G
DNA 1: CAATCTGAATTCCGGTCTCCC
DNA 2: TGGTGGCTACGACGGGATT
B28: AACUACA (DNA:RNA)
RNA: B3 RNA with C25A, C28U, A30C
DNA 1: CAATCTGAATTCCGGTCTCCC
DNA 2: TGGTGGCTACGACGGGATT
B29: GCAUGCG (DNA:RNA)
RNA: B1 RNA with U25G, U27A, G28U, U29G, G30C
DNA 1: CAATCTGAATTCCGGTCTCCC
DNA 2: TGGTGGCTACGACGGGATT
B30: ACAUCGC (DNA:RNA)
RNA: B1 RNA with U25A, U27A, G28U, U29C, G31C
DNA 1: CAATCTGAATTCCGGTCTCCC
DNA 2: TGGTGGCTACGACGGGATT
B31: GGCUUGC (DNA:RNA)
RNA: B1 RNA with U25G, C26G, U27C, G28U, G31C
DNA 1: CAATCTGAATTCCGGTCTCCC
DNA 2: TGGTGGCTACGACGGGATT

Target: T1, RBFOX1 RRM
Test: EMSA; HiTS-Eq, 1 nM pool, 10 min; buffer printed only for the single-RNA assays: 10 mM Tris pH 7.5, 150 mM NaCl, 3.4 mM EDTA, 0.001% NP-40, 30 C
Details: tags: His6 N-terminal (pET28a); label: 5' 32P
Outline: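 Purified wild-type or mutant RbFox RRM at increasing concentrations was equilibrated with 1 nM of 5′-radiolabelled RNA carrying 7 randomized nucleotides for 10 min in 50 µL. Unbound RNA was separated by 8% native PAGE and sequenced. Relative association constants came from read-count changes of each RNA species compared with the control reaction, normalised to the cognate motif.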

Binder	binding signal
B1	0.0135 KA relative to UGCAUGU
B2	0.00356 KA relative to UGCAUGU
B3	0.00153 KA relative to UGCAUGU
B4	0.00626 KA relative to UGCAUGU
B5	0.00225 KA relative to UGCAUGU
B6	0.00986 KA relative to UGCAUGU
B7	0.0116 KA relative to UGCAUGU
B8	0.0121 KA relative to UGCAUGU
B9	0.0108 KA relative to UGCAUGU
B10	0.00894 KA relative to UGCAUGU
B11	0.00896 KA relative to UGCAUGU
B12	0.00454 KA relative to UGCAUGU
B13	0.0136 KA relative to UGCAUGU
B14	0.0157 KA relative to UGCAUGU
B15	0.0294 KA relative to UGCAUGU
B16	0.0109 KA relative to UGCAUGU

Binder	binding signal
B17	0.000273 KA relative to UGCAUGU
B18	0.0262 KA relative to UGCAUGU
B19	0.00438 KA relative to UGCAUGU
B20	0.00191 KA relative to UGCAUGU
B21	0.00366 KA relative to UGCAUGU
B22	0.0117 KA relative to UGCAUGU
B23	0.00196 KA relative to UGCAUGU
B24	0.0175 KA relative to UGCAUGU
B25	0.0166 KA relative to UGCAUGU
B26	0.0118 KA relative to UGCAUGU
B27	0.0151 KA relative to UGCAUGU
B28	0.00222 KA relative to UGCAUGU
B29	0.916 KA relative to UGCAUGU
B30	0.00159 KA relative to UGCAUGU
B31	0.0328 KA relative to UGCAUGU
